# Source: the supplement of paper PMC10126150
# Values marked as one replicate rest on one cluster of the flow cell; about a third of the high ones do not repeat.
# System: ATP
# Assay: switch fluorescence ratio, 500 uM ATP over buffer (Cy3 cluster intensity, sum of 5 cycles each) (fold (ratio)); higher = stronger signal-on switching upon ATP binding; sequences stand for … in TCGTCGGCAGCGTCAGATGTGTATAAGAGACAGTTTTTTTTTTTTTTTTTTTTTTTTT…TC
# Conditions: aptamer strand: ATP DNA aptamer (quencher-CACCTGGGGGAGTATTGCGGAGGAAGG + anchor), 100 nM annealed; ATP concentration: 500 uM; one replicate
# Outline: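 Switching-strand clusters labelled with Cy3 on a modified Illumina MiSeq flow-cell were annealed to 100 nM quencher-labelled ATP aptamer, imaged in selection buffer, and re-imaged after 15 min with 500 uM ATP at 22 °C. This was done over five cycles with NaOH stripping and re-annealing in between. The fluorescence ratio is summed target-cycle over summed buffer-cycle Cy3 intensity per cluster, averaged per switch-domain sequence, excluding clusters outside 100-1000 RFU.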
# 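Note: ATP exposure 15 min at 22 °C before imaging.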
row,Sequence,switch fluorescence ratio
1,TTTGGTTCGG,0.969
2,TTTGTACGAC,1.1
3,TTTGTCAAAT,1.04
4,TTTGTCGG,0.979
5,TTTGTGACAC,1.07
6,TTTGTGTCAG,1
7,TTTGTGTGAT,0.989
8,TTTGTTGATG,0.987
9,TTTGTTTCG,0.991
10,TTTTAACTGC,1.02
11,TTTTACAGT,0.99
12,TTTTACATTG,0.988
13,TTTTACGATT,1.02
14,TTTTACTGG,0.993
15,TTTTAGCTAC,2.07
16,TTTTAGGGG,0.962
17,TTTTAGTTCA,1.02
18,TTTTATAATC,1.01
19,TTTTATATGA,1.02
20,TTTTATGTGC,0.994

row,Sequence,switch fluorescence ratio
1,TTTTATTGAT,1.02
2,TTTTCAAAAC,1.04
3,TTTTCAGTAC,1.07
4,TTTTCATTGC,0.996
5,TTTTCCCGAT,1.02
6,TTTTCCGGCG,1.11
7,TTTTCCTCTA,1.03
8,TTTTCGGACC,1.06
9,TTTTCGGCAG,1.03
10,TTTTCGGCGC,1.61
11,TTTTCGGGAG,1.01
12,TTTTCGTCAC,1.23
13,TTTTCGTTAG,1.01
14,TTTTCTCAGG,1.05
15,TTTTCTCGAA,1.07
16,TTTTCTCTAA,0.98
17,TTTTCTGCGG,1.17
18,TTTTCTTGCT,0.993
19,TTTTGACAAC,1.04
20,TTTTGAGAGC,1.12

row,Sequence,switch fluorescence ratio
1,TTTTGCAGGC,1.15
2,TTTTGCGCAT,1.05
3,TTTTGCGCCT,1.07
4,TTTTGCTTCA,1.03
5,TTTTGGAGCT,1.01
6,TTTTGGATC,0.999
7,TTTTGTAAAG,0.978
8,TTTTGTTAAC,0.991
9,TTTTGTTACG,1.03
10,TTTTGTTCG,0.991
11,TTTTTACCAG,1
12,TTTTTACGTC,0.987
13,TTTTTATGT,1.02
14,TTTTTCCCTA,0.996
15,TTTTTCTGA,0.981
16,TTTTTGGT,1.01
17,TTTTTGTGT,0.954
18,TTTTTTCGG,0.96
19,TTTTTTCTGC,1.02
